Data as given in the supplement of paper PMC7125110.
± gives the standard error. Variants at the background level are over-represented here.

B1: glmS ribozyme (parent)
chain: AUAAAAGCGCCAGAACUACAGAAAUGUAGUUGACGAGGAGGAGGUUUAUCGAAUUUUCGGCGGAUGCCUCCAAA

Legend:
Settings in all cases: with glucosamine-6-phosphate
[1] = variants of: B1; experiment: self-cleavage kobs at 40 uM GlcN6P; higher = faster cleavage; RNA array
Outline: (§1)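 Glucosamine-6-phosphate, from 40 μM to 10 mM in HEPES/KCl/Mg(OAc)2 buffer, was flowed over sequenced MiSeq chips carrying barcoded ribozyme variants transcribed in situ by E. coli RNA polymerase. A hybridised Cy3 probe tracked the variants at 37 °C as tiles were imaged over ~14 h. kobs, kcat and KM were obtained by fitting normalised per-tile medians to exponential decays and then applying weighted Michaelis–Menten fits across concentrations.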

[2] = variants of: B1; experiment: self-cleavage kobs at 640 uM GlcN6P; higher = faster cleavage; RNA array
Outline: as §1

[3] = variants of: B1; experiment: self-cleavage kobs at 2500 uM GlcN6P; higher = faster cleavage; RNA array
Outline: as §1

[4] = variants of: B1; experiment: self-cleavage kobs at 10000 uM GlcN6P; higher = faster cleavage; RNA array
Outline: as §1

[5] = variants of: B1; experiment: self-cleavage kobs at 160 uM GlcN6P; higher = faster cleavage; RNA array
Outline: as §1

Variant | self-cleavage kobs at 40 uM GlcN6P [1] [s⁻¹] | self-cleavage kobs at 640 uM GlcN6P [2] [s⁻¹] | self-cleavage kobs at 2500 uM GlcN6P [3] [s⁻¹] | self-cleavage kobs at 10000 uM GlcN6P [4] [s⁻¹] | self-cleavage kobs at 160 uM GlcN6P [5] [s⁻¹]
G9U G43U | < 1e-05 | < 1e-05 | < 1e-05 | < 1e-05 | 
G9U G43A | < 1e-05 |  |  | < 1e-05 | < 1e-05
C10U C50G | 6.14e-05 ± 1e-05 | 0.000136 ± 1.7e-05 | 0.00051 ± 0.0002 | 0.000116 ± 3e-05 | 9.85e-05 ± 1.3e-05
C10G U31G G35U G40U | < 1e-05 |  |  |  | 
C10A G32U G43A G63U U69A | < 1e-05 |  |  | < 1e-05 | 
C10A G13C U55A | < 1e-05 |  |  |  | 
G9U C10U | < 1e-05 | < 1e-05 |  | < 1e-05 | < 1e-05
G9U A33G C34A C68U C70A | < 1e-05 |  |  | < 1e-05 | 
C10A C50G G63C | 0.000128 ± 3.3e-05 |  | 7.48e-05 ± 2.8e-05 | 4.91e-05 ± 1.8e-05 | 
C10U U54A U57C | < 1e-05 |  |  |  | 
C11A A12U A52U | < 1e-05 |  |  |  | 
G9U A33G G43U | < 1e-05 |  |  | < 1e-05 | 
G9U U30C A36C | < 1e-05 | < 1e-05 | < 1e-05 |  | 
C11A A36C G38C | < 1e-05 |  |  |  | 
G9U G29A A36C | < 1e-05 |  |  |  | 
C10A G40U A48C U54A G62U | < 1e-05 |  |  | < 1e-05 | 
C11G A12C G43U G44A A48C | < 1e-05 |  |  | < 1e-05 | 
C11A A33C | < 1e-05 |  |  |  | < 1e-05
C10G C11U U49A G62U | < 1e-05 | < 1e-05 |  |  | 
C10G U47A G60U C61U | < 1e-05 |  |  |  | 
C10G G44U | < 1e-05 | < 1e-05 | < 1e-05 | < 1e-05 | < 1e-05
C10U U30C G59A G60A C70U | < 1e-05 |  |  |  | 
C10A G37C U47C G60C | < 1e-05 |  |  |  | 
C10A G44C | < 1e-05 | < 1e-05 | < 1e-05 |  | < 1e-05
G9U C71A | < 1e-05 | < 1e-05 | < 1e-05 | < 1e-05 | < 1e-05
G9U C71G | < 1e-05 | < 1e-05 | < 1e-05 |  | < 1e-05

Variant | self-cleavage kobs at 40 uM GlcN6P [1] [s⁻¹] | self-cleavage kobs at 640 uM GlcN6P [2] [s⁻¹] | self-cleavage kobs at 2500 uM GlcN6P [3] [s⁻¹] | self-cleavage kobs at 10000 uM GlcN6P [4] [s⁻¹] | self-cleavage kobs at 160 uM GlcN6P [5] [s⁻¹]
C10G G29U | < 1e-05 | < 1e-05 |  | < 1e-05 | 
C10U A12U A33U A53G C58U U69G | 9.07e-05 ± 2.5e-05 | 0.000216 ± 5.1e-05 | 0.000132 ± 4.1e-05 | 6.22e-05 ± 1.8e-05 | 0.000159 ± 3.3e-05
C10U C50A U55A | < 1e-05 |  |  | < 1e-05 | 
C10A A14C U45C C68U | < 1e-05 | < 1e-05 | < 1e-05 | < 1e-05 | 
C10U A15U G44C | < 1e-05 | < 1e-05 |  |  | 
C11G A12C G13C C61U | < 1e-05 |  |  |  | 
G9U U57C | < 1e-05 |  |  |  | 
G9U U57G | < 1e-05 | < 1e-05 |  | < 1e-05 | 
C10A G44U C50G U69C | < 1e-05 |  |  | < 1e-05 | 
C10G A52U U55C A64C | < 1e-05 | < 1e-05 |  |  | 
C10U G41U A53U | < 1e-05 |  |  | < 1e-05 | < 1e-05
C11A G40C | < 1e-05 |  |  |  | < 1e-05
C10G C16A | < 1e-05 | < 1e-05 | < 1e-05 | < 1e-05 | 
G9U G41U A42G A64U C71U | < 1e-05 |  |  |  | 
C11G A39G | < 1e-05 | < 1e-05 | < 1e-05 |  | < 1e-05
C11A U65A | < 1e-05 | < 1e-05 |  |  | < 1e-05
C11A U65C | < 1e-05 | < 1e-05 | < 1e-05 |  | 
C10A A39G G63A | < 1e-05 |  |  |  | 
C10U A33C U47G G51U C58G A64U C70A | 7.66e-05 ± 2.4e-05 |  |  | 0.000101 ± 2.1e-05 | 
G9U C16U G43U A53U | < 1e-05 |  |  | < 1e-05 | 
C10G A14G A48U | < 1e-05 |  |  |  | 
C11A G43A | < 1e-05 | < 1e-05 | < 1e-05 |  | < 1e-05
C11G A15G A53C | < 1e-05 |  | < 1e-05 |  | 
C10U A33G C70U | < 1e-05 |  |  | < 1e-05 | 
C10U C58A | < 1e-05 |  |  | < 1e-05 | 
